Test results as given in PubChem BioAssay AID1671194 (National Center for Advancing Translational Sciences (NCATS), 2021).
The whole screen tested about 140,000 compounds, of which about 240 (0.17%) were called active. Inconclusive means that the source gave no clear call. Such entries were picked first, then a sample of the others. Calls come from the whole dose curve; as a rule, active = well fitted inhibition curve with a large enough effect; inconclusive = small, poorly fitted or top-dose-only effect; inactive = no such curve, though single readings can be large or run the other way. Potencies of inconclusive entries are doubtful fits and often do not repeat.

Assay: Primary qHTS assay for inhibitors of alpha-synuclein gene (SNCA) expression; note: nearly all actives have a fitted effect of over 45% in size
Details: HEK-293 SNCA-luciferase knock-in, luminescence, 24 h; series mostly up to 57.2 µM
Potency is the fitted concentration of half-maximal effect; tags give direction and shape of the fitted curve.

Row | Compound | Potency
1 | COc1ccc(C(=O)N2CCC3(CC2)CCC(O)(CN(C)C)CC3)cc1OC | inconclusive: 7.94 µM [inhibitor, full curve, poor fit]
2 | O=C(Nc1ccc2nc(SCC(=O)N3CCCc4ccccc43)sc2c1)c1ccccc1F | inconclusive: 2.51 µM [inhibitor, single point]
3 | O=C(NC1CC1)c1ccnc2[nH]ccc12 | inconclusive: 15.8 µM [inhibitor, single point]
4 | CCc1c(C)nc2nncn2c1Nc1cccc(C)c1 | inconclusive: 2.82 µM [inhibitor, partial curve, poor fit]
5 | COc1ccc2nc3n(c2c1)[C@@H](CNS(=O)(=O)c1ccccc1)COC3 | inconclusive: 25.1 µM [inhibitor, partial curve, poor fit]
6 | CCOC(=O)c1cc(-c2ccccc2)n(CCCC(=O)Nc2ccc(C)c(C)c2)c1C | inconclusive: 31.6 µM [inhibitor, partial curve, poor fit]
7 | CCOC(=O)c1c(C)[nH]c(C)c1S(=O)(=O)N1CCN(c2ccccc2OC)CC1 | inconclusive: 25.1 µM [inhibitor, single point]
8 | COC(=O)[C@@H]1Cc2ncn(Cc3ccc(Cl)cc3)c2CN1Cc1cccc(C#N)c1 | inconclusive: 31.6 µM [inhibitor, single point]
9 | COc1cc(OC)cc(C(=O)N2CCC3(CC2)NC(=O)N(Cc2ccc(F)cc2)C3=O)c1 | inactive
10 | Cc1ccc(C)c(NC(=O)Cn2nnc(C(=O)NCc3ccco3)c2N)c1 | inconclusive: 2.82 µM [inhibitor, single point]
11 | CCN(CC)C(=O)c1csc(N2CCN(c3cccc(Cl)c3)CC2)n1 | inconclusive: 39.8 µM [inhibitor, single point]
12 | O=C(c1ccc(OC(F)(F)F)cc1)N1CCC([C@@H]2CNC[C@H]2CO)CC1 | inactive
13 | O=C1Nc2ccc(-c3ccccc3F)cc2C(=O)N2CCN(C(=O)c3ccco3)C[C@@H]12 | inactive
14 | CNC(=O)[C@@H]1CN(C(=O)c2ccc(Br)o2)C[C@H]1c1n[nH]c(C)n1 | inactive
15 | Cc1ccc(CNC(=O)c2ccc3c(c2)CN(Cc2ccc(N(C)C)cc2)CCO3)cc1 | inconclusive: 39.8 µM [inhibitor, single point]
16 | COc1cc(-c2cc(C)c3c(OC)ccc(OC)c3n2)cc2c1OCCNC2 | inactive
17 | COc1cccc(-c2ccc3ncnc(NCc4ccccc4OC)c3c2)c1 | inconclusive: 39.8 µM [inhibitor, single point]
18 | CCn1nccc1C(=O)N1CCCC(n2c(C)cnc2COC)C1 (centres undefined) | inactive
19 | O=C(NC(Cn1cccn1)c1ccccc1)c1ccc2nccnc2c1 (centres undefined) | inconclusive: 8.91 µM [inhibitor, full curve, poor fit]
20 | COc1ccc(CCCc2nnc(SCC(=O)Nc3ccccc3F)o2)cc1C | inconclusive: 5.01 µM [inhibitor, full curve]
21 | COc1ccc(CNC(=O)Cn2ccc3cc(S(=O)(=O)N4CCCCCC4)ccc32)c(OC)c1 | inconclusive: 2.51 µM [inhibitor, partial curve, poor fit]
22 | Cc1ccc(CN2CC[C@H](CNC(=O)C3CC3)[C@H](N(C)C)C2)s1 | inactive

Row | Compound | Potency
23 | Cc1cc2ccccc2n1-c1ccc(C(=O)N2CCC(C(=O)NCc3ccc(F)cc3)CC2)s1 | inconclusive: 39.8 µM [inhibitor, single point]
24 | CC(C)n1c(=O)c2oc3ccccc3c2n(Cc2ccccc2F)c1=O | inconclusive: 1.26 µM [inhibitor, single point]
25 | CC(=O)NC1(C)CN(Cc2ccc(-c3cccc(F)c3)s2)C1 | inactive
26 | COCCN1CCCC2(CCN(C(=O)c3oc4cc(C)ccc4c3C)C2)C1=O (centres undefined) | inactive
27 | Cc1ccc(NC(=O)Cn2cc(S(=O)(=O)NC(C)C)c(S(=O)(=O)NC(C)C)c2)cc1Cl | inconclusive: 35.5 µM [inhibitor, single point]
28 | Cc1ccc(NC(=O)Cn2c(=O)n(CCc3ccccc3)c(=O)c3c4c(sc32)CCCC4)cc1C | inconclusive: 2.24 µM [inhibitor, single point]
29 | CN(CCc1noc(C2CN(C(=O)c3ccncn3)C2)n1)C(=O)C1CC1 | inactive
30 | COC[C@@H]1CN(c2cnccn2)C[C@H]1C(=O)NCCc1cccnc1 | inconclusive: 12.6 µM [inhibitor, partial curve, poor fit]
31 | CC(C)NC(=O)N[C@H]1C[C@H]2C(=O)NC[C@@H](CCC(=O)N3CCN(c4ccccn4)CC3)N2C1 | inactive
32 | COCC1CN(C2CCC2)CC12CCN(C(=O)c1ccc(F)cc1)CC2 (centres undefined) | inactive
33 | Cc1ccc(CCNC(=O)c2ccc(CSCc3ccc(C)cc3)o2)cc1 | inconclusive: 15.8 µM [inhibitor, partial curve, poor fit]
34 | COc1ccccc1CC(=O)N1CCCN(c2cc(-c3ccccc3)[nH]n2)CC1 | inconclusive: 39.8 µM [inhibitor, single point]
35 | Cn1cnc2cc(-c3ccc(F)cc3)cc(C(=O)NCCCn3ccnc3)c21 | inactive
36 | O=C(NC1CCN(Cc2ccc(-c3ccsc3)cc2)C1)C1CCCC1 (centres undefined) | inactive
37 | CN(C)c1cc(N2CCCC(NC(=O)Cc3ccccc3F)C2)ncn1 (centres undefined) | inconclusive: 10 µM [inhibitor, partial curve, poor fit]
38 | Cc1nn2c(=O)cc(COC(=O)c3ccc(F)cc3)nc2s1 | inactive
39 | CC(=O)N1CCN(c2nc3c(s2)CC(C(=O)Nc2cccc(C(C)(C)C)c2)CC3)CC1 (centres undefined) | inconclusive: 39.8 µM [inhibitor, single point]
40 | COc1cccc(CNC(=O)c2cc(-c3ccsc3)c3nncn3n2)c1 | inactive
41 | COc1ccc(OCC2(C)COc3ccc(C(=O)NCCc4ccccc4)cc3N2)cc1 (centres undefined) | inactive
42 | O=S(=O)(Nc1ccc(Br)cc1)c1ccc2nc(-c3ccccc3)[nH]c2c1 | inconclusive: 31.6 µM [inhibitor, partial curve, poor fit]
43 | O=C(NCCCc1ccccc1)c1ccc2nccn2c1 | inactive
44 | COc1ccc(C2Cn3nnc(C(=O)N4CCN(C(=O)Cc5ccc(Cl)cc5)CC4)c3CO2)cc1 (centres undefined) | inconclusive: 39.8 µM [inhibitor, single point]
